RUNX1 binding intensity data for 125 sequences are collected here from the supplement of paper PMC10681739.

± gives the standard deviation of the averaged measurements. In all, about 4,000 sequences were measured (“arbitrary fluorescence units”: median about 830, highest 2% from about 6,500 on). The list lacks most of the strong results.
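Note: Full-length recombinant human RUNX1 bound to double-stranded DNA microarray spots, detected with an Alexa488-labelled secondary antibody after the anti-RUNX1 primary, read as scanned spot fluorescence.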

Chain of UniProt Q01196 (Q01196 whole entry): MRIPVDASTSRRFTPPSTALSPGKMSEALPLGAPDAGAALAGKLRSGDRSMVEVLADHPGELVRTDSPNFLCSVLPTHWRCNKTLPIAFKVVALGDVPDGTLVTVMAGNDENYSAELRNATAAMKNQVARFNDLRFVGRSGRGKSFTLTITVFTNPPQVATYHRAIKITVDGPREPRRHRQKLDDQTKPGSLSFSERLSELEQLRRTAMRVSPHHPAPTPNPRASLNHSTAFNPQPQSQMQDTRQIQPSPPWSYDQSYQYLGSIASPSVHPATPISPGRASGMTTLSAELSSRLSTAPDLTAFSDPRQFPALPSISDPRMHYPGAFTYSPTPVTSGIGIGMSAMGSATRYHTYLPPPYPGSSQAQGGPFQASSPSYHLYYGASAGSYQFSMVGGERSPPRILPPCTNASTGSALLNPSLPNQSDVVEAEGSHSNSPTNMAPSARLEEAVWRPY

The target in the assay is RUNX1 (UniProt Q01196). The assay is described as follows: RUNX1 binding intensity (PBM fluorescence), RUNX1 alone (arbitrary fluorescence units); higher = stronger binding. Conditions: RUNX1 concentration 2 nM; ETS1 concentration 0 nM. As for the experimental part:
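gcPBM on 36-bp genomic-derived probes (partner site mutated) containing one RUNX1 site and no ETS1 site. Recombinant human RUNX1 (2 nM) was incubated alone or with ETS1 (25 nM) and detected by anti-RUNX1 antibody fluorescence. Values are medians over 4 replicate spots (not normalised). The probes sit in constant array flanks that are not printed.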
CCCACCCGGCCCACAAAAAGCGGCACACCGAGCTCG displayed an RUNX1 binding intensity of 978.
As for AGGCTCCGCCGCAGTGCCAGCTGGAACTTGGGGTTC, the figure is 707; as for TGGCACCCCCTGCGGCAGTCCCGGCTCCGAGCAACC, 836; as for TAGTCCAGATACCGCGGGGCACGTCGGAGGCTGATA, 690.
For CTGGGGACCTGTGGTTTGCTGGCGGCAACAAGTGAT the value was 1340; for AATCATCAGGGAATTGCAAATCAAAACCACAATCAG, 1320; for AAACCCACACGGTCCTCCTTAAGGAGCTCCCGGGGC, 753.
As for GCTGACCGCGGAGGTCCTGTGGAGCTTGCTCTTCGG, the figure is 1080; as for GCATCTGGGGGACGTTACACAACCACAGCTGTGCAG, 787.
CAGAGTGGTTTGATGGTTTTGTGTTAGTCTTCATGC: the RUNX1 binding intensity stood at 923.
As to TATGGGGCCTGAAGCCATTCACCACAAACACTGTGT, the RUNX1 binding intensity worked out at 793.
For ACAGGCTGCTGTGGTTGACCAAGCTCCCTTTGCTGG the value was 819.
As for TGAGAGGCAGTGGTTTCTCTGGCCAGGCAATTGAGG, the figure is 715; as for CAGCTAGCCTGAAGAAGCTGCGGCGACAGCGTCCTG, 730.
In turn, TATCAGGCAAAGCGTCTCAGTCCTCCTTGTGGGCGG came in with an RUNX1 binding intensity of 725.
As for AATACCCTGTGGTGGCCGCCGAAAGTGTCGCGGCGG, the figure is 774; as for TCTGCTTCGCCGTACCGCACCCGGAATTCGGAGCTG, 861; as for GAAATGAAGGCCGGGTGTCAGTAACCACAAACGAGC, 1010.
For GACGTAAGCCGAGAGGCTCCCGTAAGCGGTCTTGAG the value was 733; for CAAAAGTGCTGCCTCTCGAGGGGTTGTGGTTCTTAC, 754; for GACATGCTCTGGAAGCTTGAGGTTTTAACGTTAAGG, 743.
CAGTGGCATGAAGAGGTCAGAAACCACTCGTGGTGG: the RUNX1 binding intensity came out at 749.
As for GATGAAAAGGAGACAAACTTGAGCTGCGGCGATGGG, the figure is 733; as for TCCCGTTCCACCGCGGAGCCGGCTGTTTGCCGAGCC, 822; as for CCGCTTACGGCCTTCGCCCGGCTTACCCGCGTCGCA, 1030.
As for GCACCACCGAAAGTAGGGCTCAACCACCGCTCATTT, the figure is 864; as for ACCGTTCTGCGGCCGCCCTCGGGCACTTTCGGTCCG, 906; as for GACTGTGGTGGAGAGAGAGGGGATGGGAGTTGTTTT, 1040.
TGCGCCGGGAGTGCATGAGCTGCCGATGTGGTGCTT came in with an RUNX1 binding intensity of 697.
For AGTCGGGAGCCATCTGCCCCAACTTGCGGTCTTCAC the value was 892; for GCAGCTTAGGCAGGGGCGGCTGACCACACTGGTCTA, 769.
As for TACAGCCTCCTTCACCCCACTTGTGGCCTGGGTTAC, the figure is 857.
CCCTTCTTCATGGGTCCTCCAATTGCTACACCGCGC showed an RUNX1 binding intensity of 976.
For TGACTAGAGACCACACACATATGCTGCATTCTCAGA the value was 804; for CTATGCGGGAGGCGGGGACAGCGCTCCCGGACCAGG, 775; for TAAGCAGTGACCTCAAATTAATATAGGAGGTCACTG, 671.
For CCTCACAGGGACTGCCTTCCCCGCGGTTCAGGAATC the value was 941; for CTGAGACACCCTGATAATTCTGTGGGTTACCCCAAA, 810; for GCTGTAGGCAATGTTATTCGCCGCGGTCAGGACAGG, 771.
As for CAGCCGACTTTCGGGGTGGGGCTTGCTGCCGCAGAG, the figure is 760; as for CTGCGCGGCTGGAAGTCGGCGGTTTCCCAGACGACG, 780; as for GGTGGCAACATGCTGGGGAGGGGAACCCACAGGGGA, 851.
With CTTACCTACAGTGCCGCTTGCTGTGGTTTCAGTTAC, the RUNX1 binding intensity came to 826.
As for ATCAGAGGCGCCACAGACCAGGGGATTTGCTGTGGA, the figure is 702.
CCGCGCCTCCTCGCGCTGTGCGCAGCCGCAGACCGA: the RUNX1 binding intensity amounted to 950.
TGTCTGGCCGCGGTAAGGGCGGCAAGGGTCTAGGTA gave an RUNX1 binding intensity of 799.
For the sequence CCCCGCCGCGGTTCCCCCTGACCGGCTTTCAGCTGG, the RUNX1 binding intensity turned out to be 991.
For CAGTGACCTCCTATATTAATTTGAGGTCACTGCTTA, the RUNX1 binding intensity is 867.
As for TGCTGAAGAGGAACACGTGACGGTTGTGGCCCTTCT, the figure is 634; as for CGGCGCTGCGGGCACCGAGTAAAACGCGGAGGCGGG, 777; as for GTCAGGCAGCTGTGGTCTTGCACGGAGGTCTTTAAT, 784.
As for TTGTGGTTTATACCCCATCTACTTTCAGCAAGGGTT, the figure is 904.
GTGTCTCCTCTTTGTTTTGGGGCTGTGGTTGCCACA displayed an RUNX1 binding intensity of 1100.
As for GGCTTTTCAGGGATCCCTTTCGCCTCATCACCGCAG, the figure is 791; as for ACGTCTGTTTACTGTGATTGAAACCGCAAGAAGAAG, 9630.
For GCAATCTTGACCACAACATGGAGACAGGCAATCAAA the value was 1540.
For GCTGCTTCAGGCCGCTGGTCGCAGGGCTGCGGGACT the value was 636; for TCTCTTTCTGAACAGGCAATTGCCTGTGGTCCAACA, 971.
Sequence CCAGCACTCCCACAAGCCGCCGAAAGTCAACTCTCC gave an RUNX1 binding intensity of 1020.
For the sequence CAGTCAATGTGGTAAGCTCATTGCCTGGAATGGCAA, the RUNX1 binding intensity came to 732.
As for CCCAGCCCTTCATGCAGGGTCGCTTGTGGGTCGGGT, the figure is 761.
Sequence ACGAGGTTTCGTGCAGGCTCCAGCCGAGACCACATC returned an RUNX1 binding intensity of 744.
As for TTTGGGGTAACCCACAGAATTATCAGGGTGTCTCAG, the figure is 761; as for CGGGACCGCGACGGGCCAGGTGACCTGAAGAGGCCG, 719; as for TAGGAGCGTCTGCGGCGCGGGCGGAGCCCGGGTTCG, 682.
For GCCGCGGTGCCTGCCGGGACAGCGAGTTCAGCCGGG the value was 738.
As for CACCTCCTACCTCCCCCCGCTGATAACCACCAACCC, the figure is 2370; as for TTACGCAGTGGTTGGAGAGCGTTGGCACGAACCCAA, 701.
In turn, CCGCGGTATCTCAGCAGCCGCTGGGCACCCGGAGGA gave an RUNX1 binding intensity of 1280.
As for GTGTGAGCCACCGCGCCAAGCCACACTGCCTTCTGC, the figure is 737; as for TTTCTGTGGCCGGGGAAATTGAGGTCACTTGCTGTC, 754; as for GGTCACGTGACCACGGGGACCGAAAGTGGCGCCCGG, 737.
In turn, GCAGTGCAGCAAGTGCTTTGTGTGGTACAATCCCAA registered an RUNX1 binding intensity of 782.
As for CACGGAGCCACTTTCGGCGGCTGTGGGCGCAAAACC, the figure is 769.
Turning to TGCTTGCGGTCCCTCGGCCCGTTTTGCTGCTAGTGG, the RUNX1 binding intensity was 1090.
As for GACTGGACAACTTGCTGGTGGAAAACCGCGACTCTT, the figure is 1170; as for CACCCAAGGCTATGCTTTTTTTTGGCAAGCCACATC, 904.
CCCGGACCCGCAGCTGCGCCTACAGACACTGCCTAG: the RUNX1 binding intensity was 1050.
For AGCGGTGTTTCAGGGTGTGAGGGCCCGCAGGAGCCG the value was 670.
For TTCTTTCTTTGACCACAGATCACTGCCTCAGAAGCA, the RUNX1 binding intensity turned out to be 3140.
As for CCTGAGAGATACGGCGCGCGTCTTCCACCACAATGC, the RUNX1 binding intensity is 845.
For ACATGAAGGAACTTGCTCAGGGCCACACCGCAGAGT, the RUNX1 binding intensity was determined as 834.
As for CCTGACCGCCTATCAAATCTTGCCACTGCCTGCTCG, the figure is 1040; as for ACAGTTTAACCACTCTAAACCCCAACTCCCTCATCT, 1350.
AAAACCACATTGCCTGTGCTGCAGGCTGGAAAGCTG had an RUNX1 binding intensity of 879.
As for GAGAAAGCCGCAGACACTGCTTACAGCTTTTCATGT, the figure is 1110.
GGGATCCTTCAGCTCCGGGTTAACCCCGACCGCGCC: the RUNX1 binding intensity is 697.
For GAGACTCCCGCAACCTTGGCCGTCTCCCCGGCTCCA the value was 943; for GCTTCTGAGGCAGTGCGTTCTGTGGGTAGGTGGAGT, 805; for GCGCCCTCCATGAAACGCCGCGGTTTACTGTCTGCC, 949.
As for GAAAAGCAGCGGTTTCCCTTTGAGCCTGAACAAGAT, the figure is 902; as for GGTTGGGTGCGGTCCGTGAGGTTCGGGCCCAGCCCA, 743.
For ACTTACCTCCCGACGTCACAGCCACCGAAACCACAG the value was 1560; for GCTGCTGGAAAAGGCGCCGAGGTAACCGCCTCACTT, 858; for GCGCTCCCTGCCAGCTTGGAGGATAACCGCCTACCG, 780.
In turn, CAGAAACGTCCCTCCTGCCGCCGCTTTGTGGTACCA displayed an RUNX1 binding intensity of 863.
For CTCATTGACATGAAGTCTAACCACAGGCTTAGGCCC the value was 1360; for TTGCGTCATTCCCGAGAGACTTTCGCGCCGCAGTTT, 731; for CAAGGGAGGGCGGTTACTAGGAGGTGAAAGGCGGAG, 777.
For CTCTGGGAATTGTAGGCGTAGGGCGTCAGGCCGCAG the value was 664; for CACCGCCGCAGTTCGCGGGAGCGCTCTTGCTGGGGC, 794; for AGGCTGCGACCCGCGGGCGGAGGCAGGGGGTGGCCT, 726.
For AAGTTGATTCCCGGGTAGTCTGTGGTTTCCTAATCA the value was 1320; for GACATGAAGCCCGCGGCAGCCTCCGTGGTTGCAGAT, 863; for AATGTAGGAGATTCCACTGCATAATTTGTGGTAGTG, 752.9 ± 6.7.
Take GTGCCTTGTGGTCAGGTGGCTGGGCAGGGTGTTTCT: the RUNX1 binding intensity came to 2240.
With CCCCGCGGCACTCTGGCACAGTCAGCTGACCGCAGA, the RUNX1 binding intensity was found to be 1580.
As for GGCCGAGGAGGGACCTGGTGTTTTGATGACCGCTGT, the figure is 816.
As for GCTGCACCGCACGGACAGGGACCCTGATGGAAAGCT, the figure is 798.
Turning to AACAGTCACATACGGGGCCGAGAGGAACCGCGAACG, the RUNX1 binding intensity stood at 862.
For GTTTTGCTGGTGGCCCGGCCATGCCTGAGGTTTCTC the value was 861; for CGGGCCACAAAATGGTGGAGGGGCAGCTTACGGCAG, 786; for GAGGACTTTCGGGTGCGTGTGATATCTGCGGGCCCG, 648.
Sequence GCAGCATTTGCTGACTTCTTCGCCCCTGTGGTTGCA came in with an RUNX1 binding intensity of 796.
As for ATGACTCCAGCAAGATCCTCCTGTGACCACTGCCCC, the figure is 956; as for CTTAAATGGGCAATGTAGGTGTGGTTAAGTCACAAA, 1030; as for AGCGGATTCCAGACATAACAATCTACAGCGGTCTTA, 745 ± 66.
For AAACATCATAGGAGGTGGATTTTGTGGTGAGAGACA the value was 860 ± 15; for GGCGCAAGTTGCGGAGTTTCTGTGTCCTTTTTCCTC, 1000; for TTGGATGTGGCTTGCCAAAAAAAAGCATAGCCTTGG, 661.
For GAAACCTGAAGCGGCGGCTGTCCGCGGTGCCGGCTG the value was 661; for CGGCTAGGAGATAAAGAGCCTTCTCTCCGCGGTAGG, 1850.
Consider CAAATTAGCCACAGGGTGGATAGGAGATGGCTAGGA, for which the RUNX1 binding intensity turned out to be 674.
With GGCCCTGGGCCGCAGCGGTAGCGACAGAAAGCGCCA, the RUNX1 binding intensity came to 726.
For CAGAGAGCGGACCTCCGCGACGCGGGTAAGCCGGGC the value was 674.
